The list shows a part of the results, in another mix than the full data. At the low end of the ranking the order means little.
Each sequence was assayed against AGO2 F182del S387D + S824A + S828D + S831D + S834A + del182-182 (UniProt Q9UKV8) (assay: RNA Bind-n-Seq (nitrocellulose filter binding and sequencing)). Details: constant regions annealed to DNA blockers; guide miR-122 5' phosphate; 30 mM Tris pH 8.0, 100 mM potassium acetate, 2 mM magnesium acetate, 0.5 mM TCEP, 0.005% NP-40, 0.01 mg/ml yeast tRNA; 3 nM AGO2-miR-122, 100 nM RNA library …; high values mean tight binding.

Question: With “GAGUUCUACAGUCCGACGAUCCCAACAUGUUUCACACCUGGAAUUCUCGGGUGCCAA / UGGAGUGUGACAAUGGUGUUUG / GATCGTCGGACTGTAGAACTC / TTGGCACCCGAGAATTCCA” as the sequence, how does the binding signal (fold enrichment over input) read?
Answer: The binding signal (fold enrichment over input) was 0.814.

Question: With “GAGUUCUACAGUCCGACGAUCCCAACAUACUUUGCACCUGGAAUUCUCGGGUGCCAA / UGGAGUGUGACAAUGGUGUUUG / GATCGTCGGACTGTAGAACTC / TTGGCACCCGAGAATTCCA” as the sequence, how does the binding signal (fold enrichment over input) read?
Answer: Its binding signal (fold enrichment over input) is 0.0589.

Question: “GAGUUCUACAGUCCGACGAUCCCAACGCAUCCUGCACCUGGAAUUCUCGGGUGCCAA / UGGAGUGUGACAAUGGUGUUUG / GATCGTCGGACTGTAGAACTC / TTGGCACCCGAGAATTCCA” was tested. Which binding signal (fold enrichment over input) did it give?
Answer: The binding signal (fold enrichment over input) was 0.0468.

Question: “GAGUUCUACAGUCCGACGAUCCCAACAUACCUUGCACCUGGAAUUCUCGGGUGCCAA / UGGAGUGUGACAAUGGUGUUUG / GATCGTCGGACTGTAGAACTC / TTGGCACCCGAGAATTCCA” was tested. Which binding signal (fold enrichment over input) did it give?
Answer: The binding signal (fold enrichment over input) was 0.0602.

Question: Which binding signal (fold enrichment over input) does the source give for “GAGUUCUACAGUCCGACGAUCCCAACGCGCCUUACACCUGGAAUUCUCGGGUGCCAA / UGGAGUGUGACAAUGGUGUUUG / GATCGTCGGACTGTAGAACTC / TTGGCACCCGAGAATTCCA” here?
Answer: Its binding signal (fold enrichment over input) is 0.0863.

Question: How did the binding signal (fold enrichment over input) turn out when “GAGUUCUACAGUCCGACGAUCCCAACGUAUCCUGCACCUGGAAUUCUCGGGUGCCAA / UGGAGUGUGACAAUGGUGUUUG / GATCGTCGGACTGTAGAACTC / TTGGCACCCGAGAATTCCA” was run?
Answer: The binding signal (fold enrichment over input) was 0.0452.

Question: With “GAGUUCUACAGUCCGACGAUCCCAACGUGCUCUGCACCUGGAAUUCUCGGGUGCCAA / UGGAGUGUGACAAUGGUGUUUG / GATCGTCGGACTGTAGAACTC / TTGGCACCCGAGAATTCCA” as the sequence, how does the binding signal (fold enrichment over input) read?
Answer: Its binding signal (fold enrichment over input) is 0.0585.

Question: For “GAGUUCUACAGUCCGACGAUCCCAACAUACUCUGCACCUGGAAUUCUCGGGUGCCAA / UGGAGUGUGACAAUGGUGUUUG / GATCGTCGGACTGTAGAACTC / TTGGCACCCGAGAATTCCA”, which binding signal (fold enrichment over input) is on record?
Answer: Its binding signal (fold enrichment over input) is 0.0808.

Question: “GAGUUCUACAGUCCGACGAUCCCAACAUGUUUUACACCUGGAAUUCUCGGGUGCCAA / UGGAGUGUGACAAUGGUGUUUG / GATCGTCGGACTGTAGAACTC / TTGGCACCCGAGAATTCCA” was tested. Which binding signal (fold enrichment over input) did it give?
Answer: The binding signal (fold enrichment over input) was 0.21.

Question: Which binding signal (fold enrichment over input) does the source give for “GAGUUCUACAGUCCGACGAUCCCAACGUGUUUCGCACCUGGAAUUCUCGGGUGCCAA / UGGAGUGUGACAAUGGUGUUUG / GATCGTCGGACTGTAGAACTC / TTGGCACCCGAGAATTCCA” here?
Answer: The binding signal (fold enrichment over input) was 0.0375.

Question: How did the binding signal (fold enrichment over input) turn out when “GAGUUCUACAGUCCGACGAUCCCAACACAUCUCGCACCUGGAAUUCUCGGGUGCCAA / UGGAGUGUGACAAUGGUGUUUG / GATCGTCGGACTGTAGAACTC / TTGGCACCCGAGAATTCCA” was run?
Answer: The binding signal (fold enrichment over input) was 0.0736.

Question: With “GAGUUCUACAGUCCGACGAUCCCAACACGUCUCGCACCUGGAAUUCUCGGGUGCCAA / UGGAGUGUGACAAUGGUGUUUG / GATCGTCGGACTGTAGAACTC / TTGGCACCCGAGAATTCCA” as the sequence, how does the binding signal (fold enrichment over input) read?
Answer: Its binding signal (fold enrichment over input) is 0.0559.

Question: With “GAGUUCUACAGUCCGACGAUCCCAACACACCCUACACCUGGAAUUCUCGGGUGCCAA / UGGAGUGUGACAAUGGUGUUUG / GATCGTCGGACTGTAGAACTC / TTGGCACCCGAGAATTCCA” as the sequence, how does the binding signal (fold enrichment over input) read?
Answer: Its binding signal (fold enrichment over input) is 0.799.

Question: With “GAGUUCUACAGUCCGACGAUCCCAACACACUUUGCACCUGGAAUUCUCGGGUGCCAA / UGGAGUGUGACAAUGGUGUUUG / GATCGTCGGACTGTAGAACTC / TTGGCACCCGAGAATTCCA” as the sequence, how does the binding signal (fold enrichment over input) read?
Answer: The binding signal (fold enrichment over input) was 0.0793.

Question: How did the binding signal (fold enrichment over input) turn out when “GAGUUCUACAGUCCGACGAUCCCAACACGUCCUACACCUGGAAUUCUCGGGUGCCAA / UGGAGUGUGACAAUGGUGUUUG / GATCGTCGGACTGTAGAACTC / TTGGCACCCGAGAATTCCA” was run?
Answer: The binding signal (fold enrichment over input) was 0.187.

Question: How did the binding signal (fold enrichment over input) turn out when “GAGUUCUACAGUCCGACGAUCCCAACAUGCUCUACACCUGGAAUUCUCGGGUGCCAA / UGGAGUGUGACAAUGGUGUUUG / GATCGTCGGACTGTAGAACTC / TTGGCACCCGAGAATTCCA” was run?
Answer: Its binding signal (fold enrichment over input) is 0.0764.

Question: For “GAGUUCUACAGUCCGACGAUCCCAACGUGCUCCGCACCUGGAAUUCUCGGGUGCCAA / UGGAGUGUGACAAUGGUGUUUG / GATCGTCGGACTGTAGAACTC / TTGGCACCCGAGAATTCCA”, which binding signal (fold enrichment over input) is on record?
Answer: Its binding signal (fold enrichment over input) is 0.426.

Question: For “GAGUUCUACAGUCCGACGAUCCCAACGUAUCUCACACCUGGAAUUCUCGGGUGCCAA / UGGAGUGUGACAAUGGUGUUUG / GATCGTCGGACTGTAGAACTC / TTGGCACCCGAGAATTCCA”, which binding signal (fold enrichment over input) is on record?
Answer: The binding signal (fold enrichment over input) was 1.35.

Question: With “GAGUUCUACAGUCCGACGAUCCCAACAUAUCUUGCACCUGGAAUUCUCGGGUGCCAA / UGGAGUGUGACAAUGGUGUUUG / GATCGTCGGACTGTAGAACTC / TTGGCACCCGAGAATTCCA” as the sequence, how does the binding signal (fold enrichment over input) read?
Answer: The binding signal (fold enrichment over input) was 0.0543.
